Molecules are shown by their SMILES. In all, about 52,000 compounds went through this assay and about 4,300 (8.3%) were called active. Cut-off read from the data, not from the text of the source: active = survival mostly below about 52% (no sharp cut-off); inactive = mostly above about 56%. Some of the results follow.

The subject of this test is DeltatarO mutant. Briefly: growth inhibition of S. aureus wild type versus tarO mutant, primary screen, teichoic acid synthesis inhibitors, RN4220, OD600 (AID 463173). The conditions noted are these: OD600, 18 h, hits give low values, screened at 18.75 µg/mL (by protocol).
As for `COc1cc2c(cc1OC)n(CC(=O)Nc1ccccc1)c(=O)n1nc(-c3ccccc3)nc21`, the survival is inactive: 67%. With `Cc1ccc(/C=C/c2nc3ccccc3n2S(=O)(=O)c2cccc(Cl)c2)cc1`, the survival is inactive: 77%. Then `O=C1COc2cc(S(=O)(=O)CCC(=O)N3CCN(c4cccc(Cl)c4)CC3)c(Cl)cc2N1`, with inactive: 66%; and `CCC(C)NC(=O)c1sc2nc(C)c(C(=O)Nc3ccc(C)cc3C)c(-c3ccc(Cl)cc3)c2c1N` (stereo unspecified), with inactive: 64%. Then `CCOc1ccc(CNC(=O)Cn2nc(C)c3nn(-c4ccc(Cl)cc4)c(C)c3c2=O)cc1OC`, with inactive: 92%. To `CCN(CC)C(=O)C1CCN(S(C)(=O)=O)CC1` belongs inactive: 103%; to `COc1ccc(CNCc2c(C(=O)O)c(C)n(Cc3ccc(Cl)cc3)c2C)c(OC)c1`, inactive: 76%; to `Cc1ccc2c(c1)c1c(c(=O)n(-c3ccccc3C)c(=O)n1CC(=O)NCCC1=CCCCC1)n2C`, inactive: 71%. As for `CC(=O)c1cc(-c2ccc(F)cc2)n(CCC(=O)Nc2nc3c(C)cccc3s2)c1C`, the survival was inactive: 77%. For `Cc1nn(CC(=O)NCCc2ccccc2Cl)c(=O)c2nn(-c3ccccc3)c(C)c12`, the survival was inactive: 118%. On to `O=S(=O)(c1ccccc1)N1CCC(c2ccncc2)CC1`, for which the survival was inactive: 92%.

In the case of `CSc1nsc(NC(=O)Nc2ccccc2C(F)(F)F)n1`, the survival was active: 13%. Then `C(=Nc1ccccc1)c1ccc(N2CCOCC2)cc1`, with inactive: 102%; and `O=C(Nc1nc2ccccc2s1)NC1CCCCC1`, with inactive: 66%; and `O=C(c1ccc(S(=O)(=O)N2CCOCC2)cc1)n1nnc2ccccc21`, with inactive: 119%. As for `Cc1ccc(CNS(=O)(=O)c2c(C)nc3scc(C)n3c2=O)cc1`, the survival is inactive: 141%. Then `CC(C)(C)c1ccc(S(=O)(=O)NCc2nc3cccnc3n2Cc2ccccc2Cl)cc1`, with inactive: 55%.

In the case of `Cc1ccc(-c2cc(C(=O)Nc3c(C(=O)c4ccccc4)oc4ccccc34)no2)cc1F`, the survival was inactive: 49%.

As for `COc1ccccc1/C=N/NC(=O)c1ccc(=O)n(C)c1`, the survival is inactive: 98%. Take `Cc1ccc(Cc2nc3ccccc3nc2SCC(=O)Nc2cccc(C(F)(F)F)c2)cc1`: the survival is inactive: 67%.

Turning to `O=C(CN1CCSc2ccccc21)N1CCN(c2cccc(Cl)c2)CC1`, the survival is inactive: 115%. To `COC(=O)c1cnn(-c2ccc(C(=O)Nc3ccc(C(C)=O)cc3)cc2)c1N` belongs inactive: 63%; to `O=C(CNCC1CCCO1)N1CCCC1` (stereo unspecified), inactive: 95%; to `Cc1ccc(-n2ncc3c(NC4CCCCC4)ncnc32)cc1`, inactive: 88%. Then `NC(=O)c1ccc(N2CCCCC2)c(N2C(=O)C3CC=CCC3C2=O)c1` (stereo unspecified), with inactive: 94%. Then `CCCSCCCNC(=O)c1ccc2c(c1)nc1n2CCCCC1`, with inactive: 84%.

As for `CC(C)c1cc(-c2nc(-c3ccccc3)no2)n[nH]1`, the survival was inactive: 94%. Then `CN(CC(=O)Nc1ccccc1Cl)S(=O)(=O)c1ccc(C(=O)N2CCOCC2)s1`, with inactive: 102%; and `COc1ccc(S(=O)(=O)N2CCN(Cc3ccc4c(c3)OCO4)CC2)cc1OC`, with active: 43%.

As for `Cc1nc(N2CCCC2)c2c(C(=O)N3CCN(c4cccc(C)c4C)CC3)c(C)oc2n1`, the survival is inactive: 94%. To `CCC(=O)Nc1ccc2nc(SCc3ccc(C)cc3)sc2c1` belongs inactive: 84%; to `CC(C)c1ccccc1NC(=O)CN1C(=O)c2cccc3cccc1c23`, active: 40%; to `O=C(CN1CCCCC1)N1CCc2ccccc21`, inactive: 70%.

In the case of `O=C(CSc1nc(-c2ccccc2)[nH]c1-c1ccccc1)Nc1ccc2c(c1)OCCO2`, the survival is inactive: 59%.

`CCOc1cc(C2CC(=O)Nc3nc(SCc4ccccc4)[nH]c(=O)c32)ccc1O` (stereo unspecified): the survival is inactive: 105%. Then `CCc1ccc2oc(-c3ccc(NC(=O)c4cc(OC)c(OC)c(OC)c4)cc3)nc2c1`, with inactive: 57%; and `CCOC(=O)c1ccc(N2C(=O)c3[nH]nc(-c4ccc(OCC)cc4)c3C2c2ccc(OC)cc2OC)cc1` (stereo unspecified), with inactive: 106%. Then `CCc1ccc(CNC(=O)CCCN2C(=O)c3cccnc3Oc3ccc(Cl)cc32)cc1`, with inactive: 94%; and `Cc1ccccc1-c1nnc(C2CCN(S(=O)(=O)c3ccc(Cl)cc3)CC2)o1`, with inactive: 89%.

Turning to `COc1ccc(CNC(=O)c2cc3c(=O)n(C)c4ccccc4c3n2C)cc1`, the survival is inactive: 89%. To `Cn1cnc(S(=O)(=O)N2CCC(C(=O)NCc3ccc(Cl)cc3)CC2)c1` belongs inactive: 101%; to `O=C(Cc1ccccc1)N(Cc1cccnc1)c1nc2ccc(F)cc2s1`, inactive: 86%. To `N=c1nc(N)nc2n1NC(c1ccc(F)cc1)=CS2` belongs inactive: 87%; to `COC(=O)C(C)Sc1nnc2cc(C)c3cc(C)cc(C)c3n12` (stereo unspecified), inactive: 100%.

As to `COc1cc(-c2cc(OC)c3c(C)oc(C)c3c(=O)c2)ccc1OC(=O)c1ccccc1C`, the survival is inactive: 86%. To `O=C(CN1C(=O)C(c2ccc(F)cc2)=NC12CCCCCC2)Nc1ccc(F)c(Cl)c1` belongs active: 40%; to `CC(=O)Nc1ccc(S(=O)(=O)Nc2cc(C)nc(C)n2)cc1`, inactive: 98%; to `COc1ccccc1NC(=O)Cn1c(=O)n(Cc2ccco2)c(=O)c2oc3ccccc3c21`, inactive: 67%.

For the compound `Cc1ccc2c(=O)cc(C(=O)Nc3c(C)n(C)n(-c4ccccc4)c3=O)oc2c1C`, the survival is inactive: 73%.

With `CCC(=O)NC1CC(=O)N(c2ccc3c(c2)OCCO3)C1` (stereo unspecified), the survival was inactive: 82%. Take `CN(C(=O)c1nc(-c2cccc(F)c2)n2c1CCCCC2)c1ccccc1F`: the survival was inactive: 98%. To `Cc1cc(C)c2c(-n3cccc3)c(C(=O)NCCc3ccc(Cl)cc3)sc2n1` belongs inactive: 104%. To `CCc1nn(CC(=O)NCCCOC)c(=O)c2cc3occc3n12` belongs inactive: 123%; to `CCCN(CCC)CCCNC(=O)Cn1cnc2onc(-c3ccc(F)cc3)c2c1=O`, inactive: 92%; to `O=C(Cn1cnc2c(nc3n2CCCCC3)c1=O)Nc1ccc(F)cc1`, inactive: 86%.

For `CCOc1ccc(C(=O)N2CCN(c3ccccc3)CC2)cc1`, the survival was inactive: 78%. Then `Cc1ccc(-c2nnc(Nc3ccc(Br)cc3)c3ccccc23)cc1S(=O)(=O)N1CCCCC1`, with inactive: 72%; and `COc1cccc(CNC(=O)CC(c2ccc(F)cc2)N2Cc3ccccc3C2=O)c1` (stereo unspecified), with inactive: 83%. For `CCc1ccc(NC(=O)CSc2ccc3nnc(CCNS(=O)(=O)c4ccc(OC)cc4)n3n2)cc1`, the survival is inactive: 81%.

Turning to `Cc1cc(OCCCSc2nc(-c3ccc(C(C)(C)C)cc3)nc3cc(=O)[nH]n23)ccc1Cl`, the survival is inactive: 89%. Then `CCc1ccc(NC(=O)C2CCN(c3cc(C)nc4c(-c5ccc(Cl)cc5)c(C)nn34)CC2)cc1`, with inactive: 92%; and `CC1CCCC(C)N1C(=O)c1ccccc1N` (stereo unspecified), with inactive: 83%.

`Cc1nc2ccc(S(=O)(=O)CCC(=O)Nc3ccc(F)cc3C)cc2s1`: the survival was inactive: 44%. Take `COc1cc(Cl)c(NC(=O)C2CCN(S(=O)(=O)c3c(C)noc3/C=C/c3ccccc3F)CC2)c(OC)c1`: the survival is inactive: 98%. To `CC(C)c1ccc(NC(=O)CCCc2nc(-c3ccc(Cl)cc3)no2)cc1` belongs inactive: 90%; to `CCCOc1ccc(NC(=O)CC2C(=O)N(c3ccccc3)C(=O)N2CCC(C)C)cc1` (stereo unspecified), inactive: 87%; to `COc1cc(C2c3c(-c4ccccc4O)n[nH]c3C(=O)N2Cc2ccncc2)ccc1O` (stereo unspecified), inactive: 90%. Then `CCc1ccccc1NC(=O)C1CCCN(S(=O)(=O)c2cccc3nsnc23)C1` (stereo unspecified), with inactive: 84%; and `COc1ccc(CCNC(=O)CCc2c(C)nc3c(c(C)nn3-c3ccc(C)cc3)c2C)c(OC)c1`, with inactive: 107%. As for `COc1ccc(Nc2cc(C)nc(-n3nc(C)cc3C)n2)cc1Cl`, the survival was inactive: 81%. Then `CC(C)N(C(=O)CSc1nc2ccccc2n1CC(=O)N1C(C)CCCC1C)C(C)C` (stereo unspecified), with inactive: 96%; and `Cc1ccc(C2=Nc3ccccc3NC(c3ccncc3)=N2)cc1`, with inactive: 77%; and `CCOc1ccc(-c2nc3c(C#N)c[nH]n3c2NC2CCCC2)cc1`, with inactive: 61%.

With `CNS(=O)(=O)c1cn(CC(=O)Nc2ccc(C)cc2C)cc1S(=O)(=O)NC`, the survival was inactive: 117%.

As to `CCCC1=C(C(=O)OC)C(c2ccccc2)n2c(nc3ccccc32)N1` (stereo unspecified), the survival is inactive: 85%.

As to `COc1ccc(NS(=O)(=O)c2ccc(NC(=O)N3CCCC3)cc2)cc1`, the survival is inactive: 117%. Then `CCOC(=O)c1cc(-c2ccc(C)cc2)nn1Cc1ccccc1`, with active: -12%; and `O=C1OC(c2ccccc2)=N/C1=C\C=C\c1ccco1`, with inactive: 98%; and `Cc1ccc(-c2cn3c(n2)sc2cc(C(=O)NCCCc4ccccc4)ccc23)cc1`, with inactive: 72%. Consider `CC(C)N(C(=O)CSc1nc2ccccc2c(=O)[nH]1)C(C)C`, for which the survival was inactive: 97%.

`COc1ccc(Cl)cc1NC(=O)CN(c1cc(C)cc(C)c1)S(=O)(=O)c1c(C)n[nH]c1C`: the survival was active: 9%. Regarding `CCc1ccc(NC(=O)c2cc3c(=O)n(Cc4cccs4)ccc3nc2C)cc1`, the survival is inactive: 117%. Turning to `O=C(Nc1cc(F)ccc1F)C1COc2ccccc2C1` (stereo unspecified), the survival is inactive: 69%.

On to `COc1cc(-c2noc(C3CC(=O)N(c4ccc5c(c4)OCCO5)C3)n2)cc(OC)c1OC` (stereo unspecified), for which the survival was inactive: 64%.

Consider `Cc1ccc(CNc2ccc(-c3nc(-c4ccco4)no3)cc2[N+](=O)[O-])cc1`, for which the survival is inactive: 53%.

On to `COc1ccc(C(=O)Nc2ccc(-n3nncc3-c3ccc(OC)c(OC)c3)cc2)cc1`, for which the survival is inactive: 80%. Then `Cc1ccc(S(=O)(=O)c2nc(-c3ccccc3)oc2N2CCN(c3ccccc3)CC2)cc1`, with inactive: 85%; and `Cc1ccc(-c2cc(C(=O)O)n(Cc3ccccc3)n2)cc1`, with inactive: 67%. Then `O=C(CN(C(=O)c1csnn1)c1cccc(F)c1)NC1CCCC1`, with inactive: 98%. Then `Cc1nc2c(C(=O)Nc3ccc(N4CCC(O)CC4)cc3)snc2c(=O)[nH]1`, with inactive: 106%; and `COc1ccc(-c2cc(C(=O)Nc3c(Cl)cccc3Cl)no2)cc1OC`, with inactive: 58%.

The record behind these values is PubChem BioAssay AID463173 (ICCB-Longwood Screening Facility, Harvard Medical School, 2010).
